The values below come from US20030162712A1 (IMMUNEX, published 2003).

The target of the experiment is T1, human angiopoietin-2 (human, UniProt O15123 68-496, limits assumed).
T1 construct: Bought preparation; two N-termini (Asp68 major, Tyr19 minor) are stated, the C-terminal limit is not; also called Ang2; human Ang2
T1 sequence (looked up): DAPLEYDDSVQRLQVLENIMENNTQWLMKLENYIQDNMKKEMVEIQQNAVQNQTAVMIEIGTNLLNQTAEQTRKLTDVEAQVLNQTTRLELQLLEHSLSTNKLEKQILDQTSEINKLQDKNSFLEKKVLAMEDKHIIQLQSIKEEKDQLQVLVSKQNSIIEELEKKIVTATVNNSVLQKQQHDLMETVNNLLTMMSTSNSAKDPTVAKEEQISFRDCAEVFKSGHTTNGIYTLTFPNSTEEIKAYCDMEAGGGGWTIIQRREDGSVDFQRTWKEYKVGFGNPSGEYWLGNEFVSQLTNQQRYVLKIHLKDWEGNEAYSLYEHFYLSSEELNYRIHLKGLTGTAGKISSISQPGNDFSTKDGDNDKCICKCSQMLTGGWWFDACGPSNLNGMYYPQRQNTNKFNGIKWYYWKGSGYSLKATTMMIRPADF
Briefly: solid-phase plate binding assay, time-resolved fluorescence, Ang2 coated. On the procedure:
Both Tek745/Fc and Tek472/Fc were examined for the ability to bind the human Tek ligand angiopoietin 2 (Ang2), using a solid-phase plate binding assay based on time-resolved fluorescence.
Low fluorescence 8×12 strip microtiter plate wells (Perkin-Wallac, Ackron, Ohio) were incubated with human Ang2 (R&D systems) at 500 ng/ml (100 μl) overnight at 2-8° C. The wells were then blocked by the addition of 100 μl of 1% BSA/PBS solution for 1 hour at room temperature. Following a 4×PBS-T (PBS-Tween 20 0.05%) wash, samples containing Tek745/Fc, Tek472/Fc, or TNFR/Fc (control/Fc) were titrated in diluent (1% BSA/PBS), in duplicate, beginning at 30 μg/ml in 3-fold dilutions. The samples were allowed to bind for 1 hour at room temperature with gentle agitation and then the unbound material was washed away 4×with PBS-T. Bound Tek/Fc was detected by adding goat anti human IgG-Europium conjugate (Perkin-Wallac), diluted to 100 ng/ml in assay buffer, to the wells and incubating for 30 minutes at room temperature. Unbound goat anti-human IgG-Europium was removed by a 4×PBS-T wash. […] Binding was determined by reading the fluorescence emitted from each well on a Victor II Multilabel counter equipped with software and light excitation/emission devices to measure Europium-derived fluorescence.

B1: Tek472/Fc (Fc fusion)
chain: AMDLILINSLPLVSDAETSLTCIASGWRPHEPITIGRDFEALMNQHQDPLEVTQDVTREWAKKVVWKREKASKINGAYFCEGRVRGEAIRIRTMKMRQQASFLPATLTMTVDKGDNVNISFKKVLIKEEDAVIYKNGSFIHSVPRHEVPDILEVHLPHAQPQDAGVYSARYIGGNLFTSAFTRLIVRRCEAQKWGPECNHLCTACMNNGVCHEDTGECICPPGFMGRTCEKACELHTFGRTCKERCSGQEGCKSYVFCLPDPYGCSCATGWKGLQCNEACHPGFYGPDCKLRCSCNNGEMCDRFQGCLCSPGWQGLQCEREGIPRMTPKIVDLPDHIEVNSGKFNPICKASGWPLPTNEEMTLVKPDGTVLHPKDFNHTDHFSVAIFTIHRILPPDSGVWVCSVNTVAGMVEKPFNISVKVLPKPLNAPNVIDTGHNFAVINISSEPYFG[… human IgG1 Fc …]
notes: Expressed in CHO cells; also called human Tek472/Fc; recombinant human Tek472/Fc
In the case of B1, the “fold better binding than Tek745/Fc” value is 21 fold and the “fold better binding than Tek745/Fc, based on mass concentration” value is over 20 fold.
